# Experimental data from the supplement of paper PMC8728848.
# The list shows a part of the results.
# Assays:
# Experiment in all cases: glycan array binding signal (z-score within array); higher = stronger binding
# Conditions in all cases: glycan notation: IUPAC condensed, linker removed
# [1] = target: Neu5Ac(a2-3)Gal(b1-3)GalNAc
# Summary of the method: (§1)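 Columns mapping to the same glycan were averaged after glycan names were converted to IUPAC-condensed notation. The data come from 3228 arrays in the Consortium for Functional Glycomics database, limited to those with an available protein sequence. Binding is reported as a within-array Z-score averaged across arrays of one protein sequence and across linkers.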
# [2] = target: Neu5Ac(a2-3)Gal(b1-3)GalNAc(b1-3)Gal(a1-4)Gal(b1-4)Glc
# Summary of the method: as §1
# [3] = target: Neu5Ac(a2-3)Gal(b1-3)GalNAc(b1-4)Gal(b1-4)Glc
# Summary of the method: as §1
# [4] = target: Neu5Ac(a2-3)Gal(b1-3)GalNAc(b1-4)[Neu5Ac(a2-3)]Gal(b1-4)Glc
# Summary of the method: as §1
# [5] = target: Neu5Ac(a2-3)Gal(b1-3)GalNAc(b1-4)[Neu5Ac(a2-8)Neu5Ac(a2-3)]Gal(b1-4)Glc
# Summary of the method: as §1
# [6] = target: Neu5Ac(a2-3)Gal(b1-3)GalNAc6S
# Summary of the method: as §1
# [7] = target: Neu5Ac(a2-3)Gal(b1-3)GlcNAc
# Summary of the method: as §1
# [8] = target: Neu5Ac(a2-3)Gal(b1-3)GlcNAc(b1-2)Man
# Summary of the method: as §1
# [9] = target: Neu5Ac(a2-3)Gal(b1-3)GlcNAc(b1-2)Man(a1-3)[GlcNAc(b1-4)][Neu5Ac(a2-3)Gal(b1-3)GlcNAc(b1-2)Man(a1-6)]Man(b1-4)GlcNAc(b1-4)GlcNAc
# Summary of the method: as §1
# [10] = target: Neu5Ac(a2-3)Gal(b1-3)GlcNAc(b1-2)Man(a1-3)[Neu5Ac(a2-3)Gal(b1-3)GlcNAc(b1-2)Man(a1-6)]Man(b1-4)GlcNAc(b1-4)GlcNAc
# Summary of the method: as §1
# [11] = target: Neu5Ac(a2-3)Gal(b1-3)GlcNAc(b1-2)[Neu5Ac(a2-3)Gal(b1-3)GlcNAc(b1-4)]Man(a1-6)[Neu5Ac(a2-3)Gal(b1-3)GlcNAc(b1-2)Man(a1-3)]Man(b1-4)GlcNAc(b1-4)GlcNAc
# Summary of the method: as §1
# [12] = target: Neu5Ac(a2-3)Gal(b1-3)GlcNAc(b1-3)Gal(b1-3)GlcNAc
# Summary of the method: as §1
# [13] = target: Neu5Ac(a2-3)Gal(b1-3)GlcNAc(b1-3)Gal(b1-4)GlcNAc
# Summary of the method: as §1
# [14] = target: Neu5Ac(a2-3)Gal(b1-3)GlcNAc(b1-3)GalNAc
# Summary of the method: as §1
# [15] = target: Neu5Ac(a2-3)Gal(b1-3)GlcNAc(b1-6)GalNAc
# Summary of the method: as §1
# [16] = target: Neu5Ac(a2-3)Gal(b1-3)GlcNAc6S
# Summary of the method: as §1
# [17] = target: Neu5Ac(a2-3)Gal(b1-3)[Fuc(a1-4)]GlcNAc
# Summary of the method: as §1
# [18] = target: Neu5Ac(a2-3)Gal(b1-3)[Fuc(a1-4)]GlcNAc(b1-3)Gal(b1-3)[Fuc(a1-4)]GlcNAc
# Summary of the method: as §1
# [19] = target: Neu5Ac(a2-3)Gal(b1-3)[Fuc(a1-4)]GlcNAc(b1-3)Gal(b1-4)[Fuc(a1-3)]GlcNAc
# Summary of the method: as §1
# [20] = target: Neu5Ac(a2-3)Gal(b1-3)[GlcNAc(b1-6)]GalNAc
# Summary of the method: as §1
# [21] = target: Neu5Ac(a2-3)Gal(b1-3)[Neu5Ac(a2-6)]GalNAc
# Summary of the method: as §1
# [22] = target: Neu5Ac(a2-3)Gal(b1-3)[Neu5Ac(a2-6)]GlcNAc(b1-3)[Fuc(a1-3)[Gal(b1-4)]GlcNAc(b1-6)]Gal(b1-4)Glc
# Summary of the method: as §1
# [23] = target: Neu5Ac(a2-3)Gal(b1-3)]Neu5Ac(a2-3)Gal(b1-4)]GlcNAc
# Summary of the method: as §1
# Neu5Ac(a2-3)Gal(b1-4)Glc = target: Neu5Ac(a2-3)Gal(b1-4)Glc
# Summary of the method: as §1
# [24] = target: Neu5Ac(a2-3)Gal(b1-4)GlcNAc
# Summary of the method: as §1
# [25] = target: Neu5Ac(a2-3)Gal(b1-4)GlcNAc(b1-2)Man
# Summary of the method: as §1
# [26] = target: Neu5Ac(a2-3)Gal(b1-4)GlcNAc(b1-2)Man(a1-3)[GlcNAc(b1-4)][Neu5Ac(a2-3)Gal(b1-4)GlcNAc(b1-2)Man(a1-6)]Man(b1-4)GlcNAc(b1-4)GlcNAc
# Summary of the method: as §1
# [27] = target: Neu5Ac(a2-3)Gal(b1-4)GlcNAc(b1-2)Man(a1-3)[Neu5Ac(a2-3)Gal(b1-4)GlcNAc(b1-2)Man(a1-6)]Man(b1-4)GlcNAc(b1-4)GlcNAc
# Summary of the method: as §1
# [28] = target: Neu5Ac(a2-3)Gal(b1-4)GlcNAc(b1-2)Man(a1-3)[Neu5Ac(a2-3)Gal(b1-4)GlcNAc(b1-2)Man(a1-6)]Man(b1-4)GlcNAc(b1-4)[Fuc(a1-6)]GlcNAc
# Summary of the method: as §1
# [29] = target: Neu5Ac(a2-3)Gal(b1-4)GlcNAc(b1-2)Man(a1-3)[Neu5Ac(a2-6)Gal(b1-4)GlcNAc(b1-2)Man(a1-6)]Man(b1-4)GlcNAc(b1-4)GlcNAc
# Summary of the method: as §1
# [30] = target: Neu5Ac(a2-3)Gal(b1-4)GlcNAc(b1-2)[Neu5Ac(a2-3)Gal(b1-4)GlcNAc(b1-4)]Man(a1-3)[GlcNAc(b1-4)][Neu5Ac(a2-3)Gal(b1-4)GlcNAc(b1-2)[Neu5Ac(a2-3)Gal(b1-4)GlcNAc(b1-6)]Man(a1-6)]Man(b1-4)GlcNAc(b1-4)GlcNAc
# Summary of the method: as §1
# [31] = target: Neu5Ac(a2-3)Gal(b1-4)GlcNAc(b1-2)[Neu5Ac(a2-3)Gal(b1-4)GlcNAc(b1-4)]Man(a1-3)[GlcNAc(b1-4)][Neu5Ac(a2-3)Gal(b1-4)GlcNAc(b1-4)Man(a1-6)]Man(b1-4)GlcNAc(b1-4)GlcNAc
# Summary of the method: as §1
# [32] = target: Neu5Ac(a2-3)Gal(b1-4)GlcNAc(b1-2)[Neu5Ac(a2-3)Gal(b1-4)GlcNAc(b1-6)]Man(a1-6)[Neu5Ac(a2-3)Gal(b1-4)GlcNAc(b1-2)Man(a1-3)][GlcNAc(b1-4)]Man(b1-4)GlcNAc(b1-4)GlcNAc
# Summary of the method: as §1
# [33] = target: Neu5Ac(a2-3)Gal(b1-4)GlcNAc(b1-3)Gal
# Summary of the method: as §1
# [34] = target: Neu5Ac(a2-3)Gal(b1-4)GlcNAc(b1-3)Gal(b1-3)GlcNAc
# Summary of the method: as §1
# [35] = target: Neu5Ac(a2-3)Gal(b1-4)GlcNAc(b1-3)Gal(b1-4)GlcNAc
# Summary of the method: as §1
# [36] = target: Neu5Ac(a2-3)Gal(b1-4)GlcNAc(b1-3)Gal(b1-4)GlcNAc(b1-2)Man(a1-3)[Neu5Ac(a2-3)Gal(b1-4)GlcNAc(b1-3)Gal(b1-4)GlcNAc(b1-2)Man(a1-6)]Man(b1-4)GlcNAc(b1-4)GlcNAc
# Summary of the method: as §1
binder,measurement,setting,value
OGAN (protein) MVQKESQATLEERESELSSNPAASAGASLEPPAAPAPGEDNPAGAGGAAVAGAAGGARRFLCGVVEGFYGRPWVMEQRKELFRRLQKWELNTYLYAPKDDYKHRMFWREMYSVEEAEQLMTLISAAREYEIEFIYAISPGLDITFSNPKEVSTLKRKLDQVSQFGCRSFALLFNDIDHNMCAADKEVFSSFAHAQVSITNEIYQYLGEPETFLFCPTEYCGTFCYPNVSQSPYLRTVGEKLLPGIEVLWTGPKVVSKEIPVESIEEVSKIIKRAPVIWDNIHANDYDQKRLFLGPYKGRSTELIPRLKGVLTNPNCEFEANYVAIHTLATWYKSNMNGVRKDVVMTDSEDSTVSIQIKLENEGSDEDIETDVLYSPQMALKLALTEWLQEFGVPHQY,glycan array binding signal (z-score),[1],-0.081
same,glycan array binding signal (z-score),[2],-0.065
same,glycan array binding signal (z-score),[3],-0.065
same,glycan array binding signal (z-score),[4],-0.059
same,glycan array binding signal (z-score),[5],-0.051
same,glycan array binding signal (z-score),[6],-0.079
same,glycan array binding signal (z-score),[7],-0.018
same,glycan array binding signal (z-score),[8],-0.09
same,glycan array binding signal (z-score),[9],-0.045
same,glycan array binding signal (z-score),[10],-0.069
same,glycan array binding signal (z-score),[11],-0.026
same,glycan array binding signal (z-score),[12],-0.053
same,glycan array binding signal (z-score),[13],-0.062
same,glycan array binding signal (z-score),[14],-0.025
same,glycan array binding signal (z-score),[15],-0.053
same,glycan array binding signal (z-score),[16],-0.071
same,glycan array binding signal (z-score),[17],-0.076
same,glycan array binding signal (z-score),[18],-0.012
same,glycan array binding signal (z-score),[19],-0.105
same,glycan array binding signal (z-score),[20],-0.088
same,glycan array binding signal (z-score),[21],-0.022
same,glycan array binding signal (z-score),[22],-0.023
same,glycan array binding signal (z-score),[23],-0.039
same,glycan array binding signal (z-score),Neu5Ac(a2-3)Gal(b1-4)Glc,-0.069
same,glycan array binding signal (z-score),[24],-0.023
same,glycan array binding signal (z-score),[25],-0.076
same,glycan array binding signal (z-score),[26],-0.046
same,glycan array binding signal (z-score),[27],-0.077
same,glycan array binding signal (z-score),[28],-0.052
same,glycan array binding signal (z-score),[29],-0.048
same,glycan array binding signal (z-score),[30],-0.075
same,glycan array binding signal (z-score),[31],0.026
same,glycan array binding signal (z-score),[32],-0.022
same,glycan array binding signal (z-score),[33],-0.071
same,glycan array binding signal (z-score),[34],-0.077
same,glycan array binding signal (z-score),[35],-0.086
same,glycan array binding signal (z-score),[36],-0.061
